Experimental data as given in PubChem BioAssay (Tox21).
The inconclusive results got no clear call from the source; some entries with a clear call stand among them for comparison. For some of these results: Potencies of inconclusive entries are left out as doubtful fits. Some compounds were tested as several samples or in several runs, with calls that do not always agree. The source made the active and inactive calls. Unless noted, calls come from the whole dose curve; as a rule, active = well fitted curve in the direction sought with a large enough effect in the repeat runs; inconclusive = weak or mixed curves; inactive = no such curve, though single readings can be large; an effect the other way counts as inactive or inconclusive.

Key:
[1] = qHTS assay for identifying genotoxic compounds that show differential cytotoxicity against isogenic chicken DT40 cell lines with known DNA damage response pathways - wild type cell line (AID 743012); settings: DT40 wild type chicken cells viability, CellTiter-Glo, 40 h; activity change, negative = cytotoxicity: at 68.4 µM (top of the series) unless noted; note: potency is the fitted concentration of half-maximal effect; nearly all actives have a fitted effect of over 60% in size
Outline: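 Wild type DT40, 300 cells/well, ~0.5 h settle at 37 C/5% CO2; compounds in DMSO added by pintool; 40 h at 37 C/5% CO2; CellTiter-Glo, 30 min RT; luminescence.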

[2] = qHTS assay to identify small molecule antagonists of the peroxisome proliferator-activated receptor delta (PPARd) signaling pathway - cell viability counter screen (AID 743213); settings: PPARd-bla HEK293H viability, CellTiter-Glo luminescence, 17 h; viability change, negative = cytotoxic: at 62 µM (top of the series) unless noted; note: nearly all actives have a fitted effect of over 50% in size; note: potency is the fitted concentration of half-maximal effect; for viability change, negative = cytotoxic: % is set by controls: 0 for no effect and ±100 for the full control effect
Outline: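 HEK293H PPARd UAS-bla cells, 5 h pre-incubation, compound + L165041 300 nM final, 17 h 37 C; B/G FRET substrate 2 h RT; then CellTiter-Glo 30 min RT, luminescence.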

[3] = qHTS assay to identify small molecule agonists of H2AX - cell viability counter screen (AID 1224847; calls by dose curve; note: potency is the fitted concentration of half-maximal effect; nearly all actives have a fitted effect of over 30% in size); settings: CHO-K1 viability, CellTiter-Glo luminescence, 3 h; series mostly up to 154 µM
Outline: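 Wild-type CHO-K1 cells (10% FBS medium) were plated overnight at 37C, exposed to compounds at 15 concentrations for 3 hr at 37C (0.76% DMSO final), and viability was read as CellTiter-Glo luminescence after 30 min at room temperature.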

[4] = molecular target: Estrogen receptor beta (Homo sapiens) (UniProt Q92731); test: qHTS assay to identify small molecule agonists of the estrogen receptor beta (ER-beta) signaling pathway (AID 1259377; active = well fitted activation curve with a large enough effect in the signal ratio in the repeat runs, not every such curve was filed as active; inconclusive = weak or mixed curves, or effect the other way; the % refers to the signal ratio; note: potency is the fitted concentration of half-maximal effect; for activation: % is set by controls: 0 for no effect and ±100 for the full control effect); settings: ER-beta-UAS-bla HEK293T, beta-lactamase FRET ratio, 16 h; activation: at 92.4 µM (top of the series) unless noted
UniProt Q92731, sequence (Q92731 whole entry, looked up): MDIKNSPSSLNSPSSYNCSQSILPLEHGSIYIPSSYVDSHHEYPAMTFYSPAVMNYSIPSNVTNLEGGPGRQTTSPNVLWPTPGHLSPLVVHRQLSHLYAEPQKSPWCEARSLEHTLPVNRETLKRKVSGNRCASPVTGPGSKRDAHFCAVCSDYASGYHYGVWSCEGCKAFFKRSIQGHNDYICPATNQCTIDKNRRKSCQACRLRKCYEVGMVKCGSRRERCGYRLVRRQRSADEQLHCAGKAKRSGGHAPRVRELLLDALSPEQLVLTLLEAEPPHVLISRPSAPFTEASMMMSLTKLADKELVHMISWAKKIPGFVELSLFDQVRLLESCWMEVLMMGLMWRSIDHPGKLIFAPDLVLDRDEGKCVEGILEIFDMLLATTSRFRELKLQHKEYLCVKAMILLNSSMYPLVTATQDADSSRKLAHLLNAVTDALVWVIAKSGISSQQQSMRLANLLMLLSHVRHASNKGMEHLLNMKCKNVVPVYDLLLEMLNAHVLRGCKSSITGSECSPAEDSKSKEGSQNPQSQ
Outline: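 ER-beta-UAS-bla HEK293T (GripTite) cells carrying a UAS-driven beta-lactamase reporter, in medium with 2% charcoal-stripped FBS, were exposed to compounds for 16 hr at 37C; LiveBLAzer B/G FRET substrate was then added and fluorescence read after 2 hours at room temperature.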

[5] = qHTS assay for small molecule agonists of the p53 signaling pathway (AID 651631; calls by dose curve; note: potency is the fitted concentration of half-maximal effect; nearly all actives have a fitted effect of over 15% in size); settings: HCT-116 p53RE-bla reporter, beta-lactamase FRET ratio, 16 h; activation: at 73.3 µM (top of the series) unless noted
Outline: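 HCT-116 cells carrying a stable p53 response element–beta-lactamase reporter were plated, rested 5 h at 37 °C, then exposed to compound in DMSO for 16 h at 37 °C; reporter activity was read as FRET substrate fluorescence after 2 h at room temperature.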

[6] = qHTS assay to identify small molecule agonists of the RXR signaling pathway - cell viability counter screen (AID 1159529); settings: RXR-alpha-bla HEK293T viability, CellTiter-Glo, 16 h; series mostly up to 76.8 µM; note: nearly all actives have a fitted effect of over 50% in size; note: potency is the fitted concentration of half-maximal effect; for activity change, negative = cytotoxicity: % is set by controls: 0 for no effect and ±100 for the full control effect
Outline: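 RXR-alpha-UAS-bla HEK 293T cells in medium with 2% charcoal-stripped FBS were preincubated 5 hr, then exposed to compounds for 16 hr at 37 C. Viability was read as CellTiter-Glo luminescence after 30 min at room temperature.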

[7] = qHTS assay to identify small molecule antagonists of the vitamin D receptor (VDR) signaling pathway - cell viability counter screen (AID 743225); settings: VDR-bla HEK293T viability, CellTiter-Glo luminescence, 16 h; viability change, negative = cytotoxic: at 61 µM (top of the series) unless noted; note: % is set by controls: 0 for no effect and ±100 for the full control effect; nearly all actives have a fitted effect of over 50% in size
Outline: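 VDR-bla HEK 293T cells, 4 h pre-incubation at 37C, then compound plus 1-alpha,25-dihydroxyvitamin D3 (3 nM final) for 16 h. After the beta-lactamase FRET read, CellTiter-Glo was added to the same wells; luminescence after 30 min at room temperature.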

[8] = qHTS assay to identify small molecule antagonists of the estrogen receptor alpha (ER-alpha) signaling pathway - cell viability counter screen (AID 743074; calls by dose curve;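 note: HEK293 cells carrying ER-alpha-UAS-bla reporter stimulated with 17beta-estradiol; nearly all actives have a fitted effect of over 45% in size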; note: potency is the fitted concentration of half-maximal effect); settings: ERalpha-bla HEK293 viability, CellTiter-Glo luminescence, 18 h; series mostly up to 69.4 µM
[9] = molecular target: Estrogen receptor (Homo sapiens) (UniProt P03372); test: qHTS assay to identify small molecule agonists of the estrogen receptor alpha (ER-alpha) signaling pathway using the BG1 cell line (AID 743079); settings: BG1Luc4E2 cells, ERE-luciferase agonist, 22 h; activation: at 70.3 µM (top of the series) unless noted; note: nearly all actives have a fitted effect of over 20% in size; note: potency is the fitted concentration of half-maximal effect
UniProt P03372, sequence (P03372 whole entry, looked up): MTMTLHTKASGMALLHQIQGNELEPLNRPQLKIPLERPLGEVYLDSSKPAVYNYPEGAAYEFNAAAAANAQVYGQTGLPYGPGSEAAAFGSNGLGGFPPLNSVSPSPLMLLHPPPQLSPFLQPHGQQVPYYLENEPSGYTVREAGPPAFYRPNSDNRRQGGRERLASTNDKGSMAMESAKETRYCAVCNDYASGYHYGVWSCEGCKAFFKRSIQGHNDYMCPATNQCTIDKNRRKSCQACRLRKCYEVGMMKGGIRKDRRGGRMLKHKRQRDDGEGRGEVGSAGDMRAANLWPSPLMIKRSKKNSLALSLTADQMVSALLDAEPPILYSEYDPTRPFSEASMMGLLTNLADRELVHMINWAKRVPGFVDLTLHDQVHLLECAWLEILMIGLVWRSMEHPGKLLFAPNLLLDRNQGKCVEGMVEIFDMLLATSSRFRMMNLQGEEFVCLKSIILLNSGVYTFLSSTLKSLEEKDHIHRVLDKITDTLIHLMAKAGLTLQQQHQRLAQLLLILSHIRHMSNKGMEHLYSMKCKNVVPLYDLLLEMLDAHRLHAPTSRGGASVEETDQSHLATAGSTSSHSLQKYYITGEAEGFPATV

[10] = qHTS assay to identify small molecule agonists of the vitamin D receptor (VDR) signaling pathway - cell viability counter screen (AID 743224); settings: VDR-bla HEK293T viability, CellTiter-Glo luminescence, 16 h; series mostly up to 62.6 µM; note: nearly all actives have a fitted effect of over 50% in size; note: potency is the fitted concentration of half-maximal effect
Outline: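 Luminescence from CellTiter-Glo, read after 30 min at room temperature, reports viability of VDR-bla cells treated with compounds for 16 h at 37C in the wells used for the beta-lactamase FRET read.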

[11] = molecular target: Thyrotropin receptor (Homo sapiens) (UniProt P16473); test: qHTS assay to identify small molecule agonists of the thyroid stimulating hormone receptor (TSHR) signaling pathway (AID 1224843; calls by dose curve; note: nearly all actives have a fitted effect of over 45% in size; note: potency is the fitted concentration of half-maximal effect); settings: TSHR-HEK293 cells, cAMP HTRF, agonist mode, 30 min; activation: at 92.4 µM (top of the series) unless noted
UniProt P16473, sequence (P16473 whole entry, looked up): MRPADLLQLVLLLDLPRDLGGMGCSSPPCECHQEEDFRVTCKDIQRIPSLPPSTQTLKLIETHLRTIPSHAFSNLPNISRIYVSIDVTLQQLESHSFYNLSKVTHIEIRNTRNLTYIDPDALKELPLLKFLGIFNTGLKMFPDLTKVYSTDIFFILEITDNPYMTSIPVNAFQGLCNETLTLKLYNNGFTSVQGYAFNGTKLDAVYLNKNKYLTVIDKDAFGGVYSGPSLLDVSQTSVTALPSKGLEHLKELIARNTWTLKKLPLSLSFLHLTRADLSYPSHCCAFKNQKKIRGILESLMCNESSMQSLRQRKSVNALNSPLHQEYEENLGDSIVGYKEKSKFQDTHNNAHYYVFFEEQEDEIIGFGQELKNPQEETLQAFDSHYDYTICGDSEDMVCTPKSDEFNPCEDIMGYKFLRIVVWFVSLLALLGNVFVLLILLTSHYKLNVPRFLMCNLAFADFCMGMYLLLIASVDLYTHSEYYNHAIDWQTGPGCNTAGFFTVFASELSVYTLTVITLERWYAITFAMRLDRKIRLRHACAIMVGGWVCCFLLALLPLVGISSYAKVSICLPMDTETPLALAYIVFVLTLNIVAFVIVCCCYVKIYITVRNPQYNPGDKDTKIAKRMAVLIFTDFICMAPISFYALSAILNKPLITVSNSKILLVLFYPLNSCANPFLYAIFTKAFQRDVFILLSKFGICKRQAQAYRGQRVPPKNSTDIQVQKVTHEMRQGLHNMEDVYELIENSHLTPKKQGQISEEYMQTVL
Outline: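 TSHR-expressing HEK293 cells (800 per well) were exposed to compounds for 30 min at room temperature. cAMP was then detected by HTRF competition with cAMP-d2 and anti-cAMP cryptate, read after 1 h at room temperature. Fifteen concentrations, triplicate.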

[12] = qHTS RealTime-Glo MT Cell Viability Assay in HEK293 cells - 16 hour (AID 1224872); settings: RealTime-Glo luminescence; series mostly up to 76.8 µM
Outline: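 Nonlytic real-time viability readout: viable cells convert prosubstrate to NanoLuc substrate, giving luminescence proportional to live cell number. HEK293, 600 cells/well, compound added after 5 h, continuous culture at 37 C.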

[13] = molecular target: Nuclear receptor subfamily 1 group I member 2 (Homo sapiens) (UniProt O75469); test: Human pregnane X receptor (PXR) small molecule agonists, qHTS assay (AID 1346982); settings: PXR-Luc HepG2, CYP3A4 luciferase reporter, 24 h; series mostly up to 92.4 µM; note: potency is the fitted concentration of half-maximal effect; nearly all actives have a fitted effect of over 35% in size
UniProt O75469, sequence (O75469 whole entry, looked up): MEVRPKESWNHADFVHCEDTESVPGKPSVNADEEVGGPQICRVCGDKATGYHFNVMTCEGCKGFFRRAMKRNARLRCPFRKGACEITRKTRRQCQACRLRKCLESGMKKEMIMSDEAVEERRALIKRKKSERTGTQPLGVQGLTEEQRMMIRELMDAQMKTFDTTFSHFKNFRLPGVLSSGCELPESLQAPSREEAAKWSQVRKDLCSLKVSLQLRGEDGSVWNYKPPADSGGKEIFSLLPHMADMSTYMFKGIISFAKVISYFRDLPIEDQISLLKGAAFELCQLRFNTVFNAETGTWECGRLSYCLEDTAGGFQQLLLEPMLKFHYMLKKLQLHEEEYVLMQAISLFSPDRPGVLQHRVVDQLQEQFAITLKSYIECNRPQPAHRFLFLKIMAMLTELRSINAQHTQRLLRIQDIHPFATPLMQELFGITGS
Outline: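 Luciferase signal from ONE-Glo (30 min, room temperature) measured activation of hPXR-driven CYP3A4 reporter expression in PXR-Luc HepG2 cells treated with compounds for 24 hr at 37 C.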

[14] = qHTS assay to identify small molecule agonists of the retinoic acid receptor (RAR) signaling pathway (AID 1159553); settings: C3RL4 RARE luciferase reporter, agonist, 6 h; activation: at 73.3 µM (top of the series) unless noted; note: % is set by controls: 0 for no effect and ±100 for the full control effect
Outline: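 Luminescence from a RARE-driven luciferase reporter in C3RL4 cells served as the read-out, measured after 30 min with detection reagent at room temperature. Compounds in DMSO were applied for 6 hr at 37 C following overnight seeding.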

[15] = Caspase-3/7 induction in CHO-K1 cells by small molecules, qHTS cell viability counter screen (AID 1346979); settings: CellTiter-Fluor fluorescence, 17 h; series mostly up to 92.4 µM; note: % is set by controls: 0 for no effect and ±100 for the full control effect; nearly all actives have a fitted effect of over 35% in size
Outline: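 Wild-type CHO-K1 cells were seeded at 1,500 per well, rested 5hr at 37 C, then exposed to compounds in DMSO. After 16hr, CellTiter-Fluor reagent was added and fluorescence read 1hr later as the viability measure.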
Tags give direction and shape of the fitted curve or compound fluorescence and quenching.

Question: Which Potency [1] does the source give for `CC(C)(O)C#N` here?
Answer: inconclusive [rising, full curve]

Question: What about the Potency [2] of the same compound?
Answer: inactive

Question: And the Potency [3]?
Answer: inconclusive [cytotoxic, partial curve, poor fit]

Question: What about the Potency [4] of the same compound?
Answer: inconclusive [activator, full curve]

Question: And the activation [4]?
Answer: inconclusive: 13.9%

Question: What does the source list for `O=C(NC(=O)c1cc(F)c(F)cc1Cl)Nc1cc(F)ccc1N1CCC(C(=O)O)CC1`?
Answer: Potency [5]: inconclusive [rising, full curve, poor fit]; Potency [1]: inconclusive [rising, partial curve, poor fit]; Potency [6]: inactive

Question: Which Potency [7] does the source give for `C=CCN1CC[C@]23CCCC[C@H]2[C@H]1Cc1ccc(O)cc13` here?
Answer: inactive

Question: What does the source list for `CCOP(=S)(OCC)SCSC(C)(C)C`?
Answer: Potency [1]: inconclusive [single point]; Potency [8]: inconclusive [cytotoxic, full curve, poor fit]; activation [9]: inconclusive: 10.6% [phenotype inactive]; Potency [10]: inactive; activation [11]: inconclusive: -35.9%; Potency [3]: inconclusive [cytotoxic, single point]; Potency [12]: inactive; Potency [13]: active: 61.6 µM

Question: Which Potency [14] does the source give for `COc1ccc(C(O)(c2cncnc2)C2CC2)cc1` (centres undefined) here?
Answer: inactive

Question: For `Cn1[nH]nnc1=S`, which Potency [6] is on record?
Answer: inactive

Question: And the activation [4]?
Answer: inconclusive: 9.12%

Question: What about the Potency [15] of the same compound?
Answer: inactive

Question: For `CCOP(=S)(Oc1cnc(C(C)(C)C)nc1)OC(C)C` (centres undefined), which Potency [2] is on record?
Answer: inconclusive [cytotoxic, full curve, poor fit]

Question: And the Potency [10]?
Answer: inconclusive [cytotoxic, single point]

Question: And the Potency [6]?
Answer: inconclusive [cytotoxic, partial curve]

Question: And the Potency [11]?
Answer: inconclusive [inhibitor, single point]

Question: What about the Potency [3] of the same compound?
Answer: inconclusive [cytotoxic, single point]

Question: For `CCCSP(=S)(OCC)Oc1ccc(Cl)cc1Cl` (centres undefined), which Potency [1] is on record?
Answer: inconclusive [cytotoxic, single point]

Question: And the Potency [8]?
Answer: inactive

Question: And the Potency [9]?
Answer: active: 38.6 µM

Question: And the Potency [10]?
Answer: inconclusive [cytotoxic, single point]

Question: And the Potency [6]?
Answer: inconclusive [cytotoxic]

Question: What about the Potency [3] of the same compound?
Answer: inconclusive [cytotoxic, partial curve]

Question: And the Potency [12]?
Answer: inactive

Question: What about the Potency [4] of the same compound?
Answer: inconclusive [fluorescent, partial curve]
